# Several values for one entry are separate records, joined by “and”; a condition that tells them apart may be missing. Equal values may be shown once. Inconclusive means that the source gave no clear call. Such entries were picked first, then a sample of the others. For some of these results: A potency beside an inconclusive call is a rough fit, not a confirmed value. Activity calls are given as the source filed them. Unless noted, calls come from the whole dose curve; as a rule, active = well fitted curve in the direction sought with a large enough effect in the repeat runs; inconclusive = weak or mixed curves; inactive = no such curve, though single readings can be large; an effect the other way counts as inactive or inconclusive.
# Legend:
# [1] = target: Peroxisome proliferator-activated receptor gamma (Homo sapiens) (UniProt P37231); assay: qHTS assay to identify small molecule agonists of the peroxisome proliferator-activated receptor gamma (PPARg) signaling pathway (AID 743094; active = well fitted activation curve with a large enough effect in the signal ratio in the repeat runs, not every such curve was filed as active; inconclusive = weak or mixed curves, or effect the other way; inactive = no such curve, though single readings can be large or run the other way; the % refers to the signal ratio; note: potency is the fitted concentration of half-maximal effect; for activation: % is set by controls: 0 for no effect and ±100 for the full control effect); settings: HEK293H PPARg-UAS-bla, beta-lactamase FRET ratio, 17 h; activation: at 57 µM (top of the series) unless noted
# In short: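 Quantitative HTS agonist mode: stable HEK293H line with UAS-beta-lactamase reporter under PPARg control, 17 h compound exposure at 37C, fluorescence after 1 h FRET substrate loading at room temperature.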
# [2] = qHTS assay for small molecule agonists of the antioxidant response element (ARE) signaling pathway (AID 743202; active = well fitted activation curve with a large enough effect in the signal ratio in the repeat runs, not every such curve was filed as active; inconclusive = weak or mixed curves, or effect the other way; inactive = no such curve, though single readings can be large or run the other way; the % refers to the signal ratio; note: potency is the fitted concentration of half-maximal effect); settings: HepG2 ARE-bla reporter, beta-lactamase FRET, 16 h; activation: at 73.3 µM (top of the series) unless noted
# In short: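 An ARE-responsive beta-lactamase gene stably integrated in HepG2 cells serves as reporter. After 5 h plating and 16 h compound incubation at 37 C, fluorescence of the B/G FRET substrate was measured.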
# [3] = target: Bile acid receptor (Homo sapiens) (UniProt Q96RI1); assay: qHTS assay to identify small molecule agonists of the farnesoid-X-receptor (FXR) signaling pathway (AID 743220; active = well fitted activation curve with a large enough effect in the signal ratio in the repeat runs, not every such curve was filed as active; inconclusive = weak or mixed curves, or effect the other way; the % refers to the signal ratio; note: % is set by controls: 0 for no effect and ±100 for the full control effect); settings: HEK293T FXR-UAS-bla, beta-lactamase FRET ratio, 16 h; activation: at 62.6 µM (top of the series) unless noted
# In short: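 Beta-lactamase reporter under UAS control in GeneBLAzer FXR HEK 293T cells (5000/well) measured with LiveBLAzer FRET substrate after 2 h at room temperature. Compound exposure lasted 16 h at 37C.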
# [4] = target: Vitamin D3 receptor (Homo sapiens) (UniProt P11473); assay: qHTS assay to identify small molecule antagonists of the vitamin D receptor (VDR) signaling pathway (AID 743223; active = well fitted inhibition curve with a large enough effect in the signal ratio in the repeat runs, not every such curve was filed as active; inconclusive = weak or mixed curves, or effect the other way; inactive = no such curve, though single readings can be large or run the other way; the % refers to the signal ratio; note: potency is the fitted concentration of half-maximal effect); settings: VDR-UAS-bla HEK293T, beta-lactamase FRET ratio, 16 h
# In short: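 Antagonist mode: compound added to VDR-bla cells alongside agonist 1alpha,25-dihydroxyvitamin D3 (3 nM final), incubation 16 h at 37C. Read-out is LiveBLAzer FRET fluorescence, 2 h at room temperature.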
# [5] = qHTS assay for small molecule activators of the heat shock response signaling pathway - cell viability counter screen (AID 743209); settings: HSE-bla HeLa viability, CellTiter-Glo luminescence, 5 h; activity change, negative = cytotoxicity: at 62.6 µM (top of the series) unless noted; note: nearly all actives have a fitted effect of over 50% in size; note: potency is the fitted concentration of half-maximal effect
# In short: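 First, HSE-bla HeLa cells were seeded at 1500 cells/well and kept overnight at 37 C. Next, compounds were pinned in and incubated 5 h. After the FRET substrate step, CellTiter-Glo was added and luminescence read 30 min later.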
# [6] = target: Peroxisome proliferator-activated receptor delta (Homo sapiens) (UniProt Q03181); assay: qHTS assay to identify small molecule antagonists of the peroxisome proliferator-activated receptor delta (PPARd) signaling pathway (AID 743215; active = well fitted inhibition curve with a large enough effect in the signal ratio in the repeat runs, not every such curve was filed as active; inconclusive = weak or mixed curves, or effect the other way; inactive = no such curve, though single readings can be large or run the other way; the % refers to the signal ratio;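 note: cells stimulated with agonist L165041 at 300 nM final during compound exposure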; note: potency is the fitted concentration of half-maximal effect); settings: HEK293H PPARd-UAS-bla, beta-lactamase FRET ratio, antagonist, 17 h
# In short: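 Inhibition of L165041-driven (300 nM final) PPARd signaling is scored in HEK293H UAS-bla cells. Exposure lasts 17 h at 37 C; beta-lactamase activity is then read by FRET substrate fluorescence after 2 h at room temperature.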
# [7] = qHTS assay to identify small molecule agonists of the farnesoid-X-receptor (FXR) signaling pathway - cell viability counter screen (AID 743218); settings: FXR-bla HEK293T viability, CellTiter-Glo luminescence, 16 h; viability change, negative = cytotoxic: at 62.6 µM (top of the series) unless noted; note: nearly all actives have a fitted effect of over 45% in size; note: potency is the fitted concentration of half-maximal effect
# In short: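 Cytotoxicity counter-screen run in parallel, same wells: FXR-UAS-bla HEK 293T cells dosed 16 h at 37 C, viability read by CellTiter-Glo luminescence after 30 min at room temperature.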
# [8] = target: Peroxisome proliferator-activated receptor gamma (Homo sapiens) (UniProt P37231); assay: qHTS assay to identify small molecule antagonists of the peroxisome proliferator-activated receptor gamma (PPARg) signaling pathway (AID 743191; calls by dose curve; note: % is set by controls: 0 for no effect and ±100 for the full control effect; nearly all actives have a fitted effect of over 30% in size); settings: HEK293H PPARg-UAS-bla, beta-lactamase ratio, antagonist, 17 h
# In short: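 Beta-lactamase reporter under UAS control in HEK293H PPARg-bla cells; compound treatment 17 h at 37C. Read-out: fluorescence intensity after 1 h room-temperature incubation with LiveBLAzer B/G FRET substrate.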
# [9] = qHTS assay for small molecule activators of the heat shock response signaling pathway (AID 743210; active = well fitted activation curve with a large enough effect in the signal ratio in the repeat runs, with a control signal flat, not every such curve was filed as active; inconclusive = weak or mixed curves; the % refers to the signal ratio;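 note: HeLa cells with beta-lactamase reporter driven by heat shock elements; % is set by controls: 0 for no effect and ±100 for the full control effect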); settings: HeLa HSE-bla reporter, beta-lactamase ratio, 5 h; activation: at 62.6 µM (top of the series) unless noted
# In short: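 In HSE-bla HeLa cells, 5 h compound incubation (37 C) precedes addition of LiveBLAzer B/G substrate; after 2.5 h at room temperature, fluorescence intensity indicates reporter induction.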
# [10] = qHTS assay to identify small molecule agonists of the peroxisome proliferator-activated receptor delta (PPARd) signaling pathway - cell viability counter screen (AID 743211); settings: PPARd-bla HEK293H viability, CellTiter-Glo luminescence, 17 h; activity change, negative = cytotoxicity: at 62.6 µM (top of the series) unless noted; note: nearly all actives have a fitted effect of over 55% in size; note: potency is the fitted concentration of half-maximal effect
# In short: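 Viability was measured as CellTiter-Glo luminescence (30 min, room temperature) in the same wells as the beta-lactamase readout. GeneBLAzer PPARd UAS-bla HEK293H cells received compound after 5 h plating and were incubated 17 h at 37 C.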
# [11] = qHTS assay to identify small molecule antagonists of the peroxisome proliferator-activated receptor delta (PPARd) signaling pathway - cell viability counter screen (AID 743213); settings: PPARd-bla HEK293H viability, CellTiter-Glo luminescence, 17 h; viability change, negative = cytotoxic: at 62 µM (top of the series) unless noted; note: potency is the fitted concentration of half-maximal effect; nearly all actives have a fitted effect of over 50% in size
# In short: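 PPARd-bla HEK293H cells were treated with compounds plus agonist L165041 (300 nM final) for 17 h at 37 C. Viability was then read in the same wells by CellTiter-Glo luminescence after 30 min at room temperature.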
# [12] = qHTS assay to identify small molecule agonists of the vitamin D receptor (VDR) signaling pathway - cell viability counter screen (AID 743224); settings: VDR-bla HEK293T viability, CellTiter-Glo luminescence, 16 h; activity change, negative = cytotoxicity: at 62.6 µM (top of the series); note: % is set by controls: 0 for no effect and ±100 for the full control effect; nearly all actives have a fitted effect of over 50% in size
# In short: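 Viability is measured in the same wells as the VDR-bla reporter assay: after 16 h compound treatment and 2 h substrate loading, CellTiter-Glo is added and luminescence read 30 min later.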
# [13] = qHTS assay to identify small molecule antagonists of the farnesoid-X-receptor (FXR) signaling pathway - cell viability counter screen (AID 743221; active = well fitted cell-killing curve with a large enough effect in the repeat runs, not every such curve was filed as active; inconclusive = weak or mixed curves, or effect the other way; inactive = no such curve, though single readings can be large or run the other way; note: % is set by controls: 0 for no effect and ±100 for the full control effect; nearly all actives have a fitted effect of over 50% in size); settings: FXR-bla HEK293T viability, CellTiter-Glo luminescence, 16 h; activity change, negative = cytotoxicity: at 62.6 µM (top of the series) unless noted
# In short: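 Cytotoxicity counter screen run in the FXR-bla reporter wells: HEK 293T cells exposed to compound with 50 uM (final) chenodeoxycholic acid for 16 h, 37 C, then viability measured by CellTiter-Glo luminescence after 30 min, room temperature.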
# [14] = target: Vitamin D3 receptor (Homo sapiens) (UniProt P11473); assay: qHTS assay to identify small molecule agonists of the vitamin D receptor (VDR) signaling pathway (AID 743222; calls by dose curve; note: potency is the fitted concentration of half-maximal effect); settings: HEK293T VDR-UAS-bla, beta-lactamase FRET ratio, 16 h; activation: at 63.5 µM (top of the series) unless noted
# In short: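 Quantitative HTS agonist-mode screen: compounds in DMSO were pin-transferred onto VDR-bla cells and incubated 16 h at 37C, 5% CO2. Reporter activity was detected with LiveBLAzer B/G FRET substrate after 2 h at room temperature.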
# [15] = target: Bile acid receptor (Homo sapiens) (UniProt Q96RI1); assay: qHTS assay to identify small molecule antagonists of the farnesoid-X-receptor (FXR) signaling pathway (AID 743217; active = well fitted inhibition curve with a large enough effect in the signal ratio in the repeat runs, not every such curve was filed as active; inconclusive = weak or mixed curves, or effect the other way; inactive = no such curve, though single readings can be large or run the other way; the % refers to the signal ratio; note: % is set by controls: 0 for no effect and ±100 for the full control effect); settings: HEK293T FXR-UAS-bla, beta-lactamase ratio, CDCA-stimulated, 16 h; activity change, negative = inhibition: at 62.6 µM (top of the series) unless noted
# In short: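 Antagonist mode against 50 uM (final) chenodeoxycholic acid stimulation in FXR-bla HEK 293T cells, 16 h at 37 °C. Inhibition detected as reduced beta-lactamase activity via LiveBLAzer B/G FRET fluorescence after 2 h at room temperature.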
# [16] = qHTS assay to identify small molecule antagonists of the peroxisome proliferator-activated receptor gamma (PPARg) signaling pathway - cell viability counter screen (AID 743194); settings: PPARg-bla HEK293H viability, CellTiter-Glo luminescence, 17 h, co-treated with 50 nM rosiglitazone; activity change, negative = cytotoxicity: at 62.6 µM (top of the series) unless noted; note: potency is the fitted concentration of half-maximal effect; nearly all actives have a fitted effect of over 55% in size
# In short: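 Viability was measured as CellTiter-Glo luminescence in GeneBLAzer PPARg UAS-bla HEK293H cells. These cells had been exposed 17 h at 37 C to compounds together with rosiglitazone at 50 nM final, with the beta-lactamase readout taken in the same wells.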
# [17] = target: Peroxisome proliferator-activated receptor delta (Homo sapiens) (UniProt Q03181); assay: qHTS assay to identify small molecule agonists of the peroxisome proliferator-activated receptor delta (PPARd) signaling pathway (AID 743212; calls by dose curve; note: potency is the fitted concentration of half-maximal effect); settings: HEK293H PPARd-UAS-bla, beta-lactamase FRET ratio, 17 h; activation: at 62.6 µM (top of the series) unless noted
# In short: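 HEK293H UAS-bla reporter cells, human PPARd system; compounds delivered in DMSO after 5 h plating, then at 37 C. Beta-lactamase FRET read, 2 h RT substrate step.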
# [18] = activity change, negative = inhibition: at 61 µM (top of the series) unless noted
# [19] = ratio activity, negative = inhibition: at 62 µM (top of the series) unless noted
# [20] = ratio activity, negative = inhibition: at 62.6 µM (top of the series) unless noted
# Tags give direction and shape of the fitted curve or compound fluorescence and quenching.
# UniProt P37231, sequence (P37231 whole entry, looked up): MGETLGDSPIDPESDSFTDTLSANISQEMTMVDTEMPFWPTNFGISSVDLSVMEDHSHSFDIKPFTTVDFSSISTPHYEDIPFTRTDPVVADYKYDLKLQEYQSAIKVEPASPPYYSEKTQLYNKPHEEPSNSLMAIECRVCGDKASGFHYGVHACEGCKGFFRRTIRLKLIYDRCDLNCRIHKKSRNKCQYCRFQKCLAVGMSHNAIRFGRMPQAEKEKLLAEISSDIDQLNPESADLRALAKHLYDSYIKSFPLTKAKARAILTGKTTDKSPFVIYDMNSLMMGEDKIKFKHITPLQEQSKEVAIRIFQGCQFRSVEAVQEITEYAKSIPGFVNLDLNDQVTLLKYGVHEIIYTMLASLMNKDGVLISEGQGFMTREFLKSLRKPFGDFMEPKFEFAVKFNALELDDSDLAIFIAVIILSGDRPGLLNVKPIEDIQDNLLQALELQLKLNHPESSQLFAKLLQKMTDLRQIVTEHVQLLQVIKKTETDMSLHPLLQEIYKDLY
# UniProt P11473, sequence (P11473 whole entry, looked up): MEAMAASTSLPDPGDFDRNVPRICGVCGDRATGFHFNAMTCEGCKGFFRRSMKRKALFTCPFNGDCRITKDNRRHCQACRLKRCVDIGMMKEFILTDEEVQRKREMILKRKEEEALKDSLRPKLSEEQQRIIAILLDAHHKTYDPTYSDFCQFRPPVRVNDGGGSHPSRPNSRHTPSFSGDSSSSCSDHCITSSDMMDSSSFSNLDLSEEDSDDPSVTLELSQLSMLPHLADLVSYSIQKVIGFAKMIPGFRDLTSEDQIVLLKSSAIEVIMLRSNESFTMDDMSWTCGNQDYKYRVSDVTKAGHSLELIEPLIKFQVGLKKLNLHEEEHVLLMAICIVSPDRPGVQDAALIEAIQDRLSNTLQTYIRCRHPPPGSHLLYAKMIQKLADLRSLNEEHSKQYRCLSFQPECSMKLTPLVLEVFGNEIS
# UniProt Q96RI1, sequence (Q96RI1 whole entry, looked up): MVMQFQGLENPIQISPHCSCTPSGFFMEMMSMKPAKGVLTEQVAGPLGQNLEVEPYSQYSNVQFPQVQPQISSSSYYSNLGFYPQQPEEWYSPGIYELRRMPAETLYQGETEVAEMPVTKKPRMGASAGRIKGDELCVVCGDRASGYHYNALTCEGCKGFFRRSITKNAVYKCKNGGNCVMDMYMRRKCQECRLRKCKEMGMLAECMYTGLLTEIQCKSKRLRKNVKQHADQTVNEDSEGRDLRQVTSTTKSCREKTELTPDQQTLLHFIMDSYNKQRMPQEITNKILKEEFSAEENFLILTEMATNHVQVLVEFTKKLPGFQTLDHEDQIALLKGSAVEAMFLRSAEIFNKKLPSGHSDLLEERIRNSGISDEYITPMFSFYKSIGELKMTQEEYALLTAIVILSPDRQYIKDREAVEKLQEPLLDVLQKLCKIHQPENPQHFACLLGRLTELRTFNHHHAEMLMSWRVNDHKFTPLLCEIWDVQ
# UniProt Q03181, sequence (Q03181 whole entry, looked up): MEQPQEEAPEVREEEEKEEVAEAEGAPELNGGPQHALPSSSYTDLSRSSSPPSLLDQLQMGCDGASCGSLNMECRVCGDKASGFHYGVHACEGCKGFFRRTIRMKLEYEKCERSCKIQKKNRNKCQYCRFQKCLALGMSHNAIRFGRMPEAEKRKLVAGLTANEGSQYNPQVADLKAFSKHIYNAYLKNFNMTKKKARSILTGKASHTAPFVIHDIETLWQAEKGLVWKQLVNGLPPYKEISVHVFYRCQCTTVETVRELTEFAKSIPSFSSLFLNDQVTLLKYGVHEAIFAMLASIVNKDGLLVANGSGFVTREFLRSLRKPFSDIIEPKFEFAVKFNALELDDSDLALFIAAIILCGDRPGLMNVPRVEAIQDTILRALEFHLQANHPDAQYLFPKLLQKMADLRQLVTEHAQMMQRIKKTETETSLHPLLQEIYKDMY
compound,measurement,setting,value
CCOC(=O)c1ccc(I)cc1,Potency,[1],inactive
same,Potency,[2],inactive
same,Potency,[3],inactive
same,Potency,[4]; [18],inactive
CC(C(=O)O)c1cccc(C(=O)c2ccccc2)c1 (centres undefined),activation,[1],inconclusive: 6.98%
same,Potency,[2],inactive
same,Potency,[5],inactive
same,"ratio activity, negative = inhibition",[6]; [19],inconclusive: -36.6% [inhibitor]
same,Potency,[7],"inconclusive: 0.0106 µM [rising, full curve, poor fit]"
CCCC(CCC)C(=O)O,"ratio activity, negative = inhibition",[8]; at 62.6 µM (top of the series),inactive: 14.3% and inactive: -18.7%
same,"ratio activity, negative = inhibition",[8]; [20],inconclusive: -39.3% and inconclusive: 0.428%
same,activation,[2],inconclusive: -2.8%
same,activation,[9],inconclusive: 7.01%
same,Potency,[10],inactive
same,Potency,[11],"inconclusive: 1.37 µM [cytotoxic, partial curve, poor fit]"
same,Potency,[4]; [18],inactive
same,Potency,[12],inactive
CC(=O)CCC(=O)O,Potency,[1],inactive
same,activation,[2],inconclusive: 23.7%
same,Potency,[10],inactive
same,Potency,[13],inactive
same,Potency,[14],inactive
same,"activity change, negative = inhibition",[4]; [18],inconclusive: 21.2%
CCCCC(CC)COC(=O)CCCCC(=O)OCc1ccccc1 (centres undefined),"ratio activity, negative = inhibition",[8]; [20],inconclusive: 7.7%
CC(C)=CCC/C(C)=C\CO,activation,[1],inconclusive: 4.7%
same,Potency,[11],"inconclusive: 15.6 µM [cytotoxic, single point]"
same,Potency,[15],inactive
Cc1cccc(C(=O)O)c1,Potency,[1],inactive
same,Potency,[16],"inconclusive: 21.6 µM [rising, single point]"
same,Potency,[7],inactive
CO[Si](C)(C)OC,Potency,[1],inactive
same,Potency,[9],inactive
same,Potency,[6]; [19],"inconclusive: 0.155 µM [rising, full curve, poor fit]"
O=C(OC(=O)c1ccccc1)c1ccccc1,Potency,[1],inactive
same,Potency,[9],inactive
same,Potency,[4]; [18],"inconclusive: 99.5 µM [fluorescent, single point]"
CCOc1c(N2CCOCC2)cnn(C)c1=O,"ratio activity, negative = inhibition",[8]; [20],inconclusive: -1.63%
Cc1cc2c(OCC(CNC(C)(C)C)OC(=O)c3ccccc3)cccc2[nH]1 (centres undefined),Potency,[1],inactive
same,activation,[17],inconclusive: -0.284%
CCCCCCC(=O)c1ccccc1,Potency,[1],inactive
same,Potency,[6]; [19],inactive
same,Potency,[15],inactive
same,Potency,[7],"inconclusive: 7.76 µM [rising, partial curve, poor fit]"
CCC(=O)OCc1ccccc1,Potency,[1],inactive
same,Potency,[2],inactive
same,Potency,[7],inactive
same,Potency,[13],inactive
CC1COC(=O)O1 (centres undefined),"ratio activity, negative = inhibition",[8]; at 62.6 µM (top of the series),inactive: -10.6%
same,"ratio activity, negative = inhibition",[8]; [20],inconclusive: 4.93% [at 81.1 µM]
same,Potency,[16],"inconclusive: 0.0899 µM [rising, full curve, poor fit]"
same,activation,[2],inconclusive: 10.6%
same,Potency,[10],"inconclusive: 11 µM [cytotoxic, full curve]"
same,Potency,[11],"inconclusive: 0.0358 µM [cytotoxic, full curve, poor fit]"
same,Potency,[15],inactive
same,Potency,[14],"inconclusive: 15.5 µM [rising, partial curve, poor fit]"
CC(C)(C)c1cc(Cc2cc(C(C)(C)C)c(O)c(C(C)(C)C)c2)cc(C(C)(C)C)c1O,"ratio activity, negative = inhibition",[8]; at 62.6 µM (top of the series),inactive: -11.2%
same,"ratio activity, negative = inhibition",[8]; [20],inconclusive: 30%
same,Potency,[2],inactive
same,Potency,[10],"inconclusive: 21.9 µM [cytotoxic, full curve, poor fit]"
same,Potency,[7],inactive
same,"activity change, negative = inhibition",[4]; [18],inconclusive: -9.7%
CCN(CCN)c1cccc(C)c1,"ratio activity, negative = inhibition",[8]; at 81.1 µM (top of the series),inactive: 2.36%
same,"ratio activity, negative = inhibition",[8]; [20],inconclusive: -3.51%
same,Potency,[16],"inconclusive: 4.41 µM [rising, full curve, poor fit]"
same,Potency,[13],inactive
same,Potency,[4]; [18],"inconclusive: 19.7 µM [falling, partial curve, poor fit]"
C=CC(=O)NC(C)(C)CS(=O)(=O)O,Potency,[1],"inconclusive: 5.38 µM [fluorescent, full curve, poor fit]"
same,Potency,[17],"inconclusive: 0.14 µM [rising, partial curve]"
same,"ratio activity, negative = inhibition",[6]; at 62 µM (top of the series),inactive: -17.3% and inactive: 3.84%
same,"ratio activity, negative = inhibition",[6]; [19],inconclusive: 1.49% [fluorescent] [at 80.4 µM]
same,Potency,[7],"inconclusive: 60.3 µM [rising, partial curve, poor fit]"
same,activation,[14],inconclusive: -6.6% [at 81.1 µM]
same,"activity change, negative = inhibition",[4]; at 61 µM (top of the series),inconclusive: -2.86%
same,"activity change, negative = inhibition",[4]; at 78.8 µM (top of the series),inconclusive: 7.54%
CC(=O)CCC(C)C,"ratio activity, negative = inhibition",[8]; at 62.6 µM (top of the series),inactive: 5.16%
same,"ratio activity, negative = inhibition",[8]; [20],inconclusive: -3.04%
same,Potency,[2],active: 61.1 µM
same,activation,[2],inconclusive: -3.29%
same,Potency,[5],"inconclusive: 53.1 µM [rising, partial curve, poor fit]"

# — PubChem BioAssay (Tox21)
